This series in a line: label from the status in PepcDB records.
On to “MANLDKYTETFKMGSNSTSTAEIYCNVTNVKFQYSLYATTYILIFIPGLLANSAALWVLCRFISKKNKAIIFMINLSVADLAHVLSLPLRIYYYISHHWPFQRALCLLCFYLKYLNMYASICFLTCISLQRCFFLLKPFRARDWKRRYDVGISAAIWIVVGTACLPFPILRSTDLNNNKSCFADLGYKQMNAVALVGMITVAELAGFVIPVIIIAWCTWKTTISLRQPPMAFQGISERQKALRMVFMCAAVFFICFTPYHINFIFYTMVKETIISSCPVVRIALYFHPFCLCLASLCCLLDPILYYFMASEFRDQLSRHGSSVTRSRLMSKESGSSMIG”, for which the protein production entry is given as “failed”.

Regarding “MAPTEPWSPSPGSAPWDYSGLDGLEELELCPAGDLPYGYVYIPALYLAAFAVGLLGNAFVVWLLAGRRGPRRLVDTFVLHLAAADLGFVLTLPLWAAAAALGGRWPFGDGLCKLSSFALAGTRCAGALLLAGMSVDRYLAVVKLLEARPLRTPRCALASCCGVWAVALLAGLPSLVYRGLQPLPGGQDSQCGEEPSHAFQGLSLLLLLLTFVLPLVVTLFCYCRISRRLRRPPHVGRARRNSLRIIFAIESTFVGSWLPFSALRAVFHLARLGALPLPCPLLLALRWGLTIATCLAFVNSCANPLIYLLLDRSFRARALDGACGRTGRLARRISSASSLSRDDSSVFRCRAQAANTASASW”, the protein production result is given as “failed”.

For the sequence “MIVGLGTDIAEIERVEKALARSGENFARRILTDSELEQFHASKQQGRFLAKRFAAKEAASKALGTGIAQGVTFHDFTISHDKLGKPLLILSGQAAELASQLQVENIHLSISDERHYAMATVILERR”, the protein production result is recorded as “not failed”.

In the case of “MNTTSSAAPPSLGVEFISLLAIILLSVALAVGLPGNSFVVWSILKRMQKRSVTALMVLNLALADLAVLLTAPFFLHFLAQGTWSFGLAGCRLCHYVCGVSMYASVLLITAMSLDRSLAVARPFVSQKLRTKAMARRVLAGIWVLSFLLATPVLAYRTVVPWKTNMSLCFPRYPSEGHRAFHLIFEAVTGFLLPFLAVVASYSDIGRRLQARRFRRSRRTGRLVVLIILTFAAFWLPYHVVNLAEAGRALAGQAAGLGLVGKRLSLARNVLIALAFLSSSVNPVLYACAGGGLLRSAGVGFVAKLLEGTGSEASSTRRGGSLGQTARSGPAALEPGPSESLTASSPLKLNELN”, the protein production entry was “failed”.

On to “MPDTNSTINLSLSTRVTLAFFMSLVAFAIMLGNALVILAFVVDKNLRHRSSYFFLNLAISDFFVGVISIPLYIPHTLFEWDFGKEICVFWLTTDYLLCTASVYNIVLISYDRYLSVSNAVSYRTQHTGVLKIVTLMVAVWVLAFLVNGPMILVSESWKDEGSECEPGFFSEWYILAITSFLEFVIPVILVAYFNMNIYWSLWKRDHLSRCQSHPGLTAVSSNICGHSFRGRLSSRRSLSASTEVPASFHSERQRRKSSLMFSSRTKMNSNTIASKMGSFSQSDSVALHQREHVELLRARRLAKSLAILLGVFAVCWAPYSLFTIVLSFYSSATGPKSVWYRIAFWLQWFNSFVNPLLYPLCHKRFQKAFLKIFCIKKQPLPSQHSRSVSS”, for which the protein production result is on record as “failed”.

For the sequence “MSLPNSSCLLEDKMCEGNKTTMASPQLMPLVVVLSTICLVTVGLNLLVLYAVRSERKLHTVGNLYIVSLSVADLIVGAVVMPMNILYLLMSKWSLGRPLCLFWLSMDYVASTASIFSVFILCIDRYRSVQQPLRYLKYRTKTRASATILGAWFLSFLWVIPILGWNHFMQQTSVRREDKCETDFYDVTWFKVMTAIINFYLPTLLMLWFYAKIYKAVRQHCQHRELINRSLPSFSEIKLRPENPKGDAKKPGKESPWEVLKRKPKDAGGGSVLKSPSQTPKEMKSPVVFSQEDDREVDKLYCFPLDIVHMQAAAEGSSRDYVAVNRSHGQLKTDEQGLNTHGASEISEDQMLGDSQSFSRTDSDTTTETAPGKGKLRSGSNTGLDYIKFTWKRLRSHSRQYVSGLHMNRERKAAKQLGFIMAAFILCWIPYFIFFMVIAFCKNCCNEHLHMFTIWLGYINSTLNPLIYPLCNENFKKTFKRILHIRS”, the protein production result is “not failed”.

In the case of “MVPEPGPTANSTPAWGAGPPSAPGGSGWVAAALCVVIALTAAANSLLIALICTQPALRNTSNFFLVSLFTSDLMVGLVVMPPAMLNALYGRWVLARGLCLLWTAFDVMCCSASILNLCLISLDRYLLILSPLRYKLRMTPLRALALVLGAWSLAALASFLPLLLGWHELGHARPPVPGQCRLLASLPFVLVASGLTFFLPSGAICFTYCRILLAARKQAVQVASLTTGMASQASETLQVPRTPRPGVESADSRRLATKHSRKALKASLTLGILLGMFFVTWLPFFVANIVQAVCDCISPGLFDVLTWLGYCNSTMNPIIYPLFMRDFKRALGRFLPCPRCPRERQASLASPSLRTSHSGPRPGLSLQQVLPLPLPPDSDSDSDAGSGGSSGLRLTAQLLLPGEATQDPPLPTRAAAAVNFFNIDPAEPELRPHPLGIPTN”, the protein production entry was “failed”.

The record behind these values is a protein production outcome set (Wang et al. 2014).
